# Laboratory results as given in PubChem BioAssay AID1362 (SRMLSC, 2008).
# Some of the results follow. The main result of the screen is listed elsewhere. These columns were measured beside it and carry no call. Most of these compounds were active or inconclusive in the main read-out, so they are no random draw.
# Assay: growth inhibition of WT strain, primary screen, mitochondrial fusion inhibitor project, WT and mutant strains, chemical genetic (AID 1362); note: tested in S. cerevisiae
# Conditions: mitochondrial fusion phenotypic screen, at 10 µM
row,SMILES,inhibition [%]
1,Cc1nc2c(=O)n(C)c(=O)n(C)c2nc1Cl,44.6
2,CCc1oc2ccccc2c1C(=O)c1cc(Br)c(O)c(Br)c1,63.4
3,COc1ccc(Nc2c3c(nc4c(-c5ccccc5)c(C)nn24)CCC3)cc1,17.5
4,CSc1ccc(/C=N/NC(=O)CNc2ccc3ccccc3c2)cc1,51.5
5,Cc1ccc(C)c(-c2cc(C(=O)Nc3nccs3)c3ccccc3n2)c1,38.3
6,N=c1c2c(n(Cc3ccc(Br)cc3)c3c1CCC3)CCCC2,30.2
7,CN(C)c1ccc(C(CNS(=O)(=O)c2ccc(F)c(F)c2)c2c[nH]c3ccccc23)cc1 (configuration not stated),-0.95
8,COc1ccc(-c2cc3nc(-c4ccccc4)cc(N4CCC(O)CC4)n3n2)cc1,3.48
9,Cc1cc(Cl)ccc1OC(C)C(=O)Nc1ccccc1N1CCOCC1 (configuration not stated),9.85
10,COc1cc(CNn2cn[nH]c2=S)cc(Br)c1OCc1ccccc1F,22.7
11,CS(=O)(=O)N(Cc1cc2ccccc2[nH]c1=O)C1CCCCC1,6.85
12,O=C(Nc1cccnc1)c1ccc(Cl)c(S(=O)(=O)N2CCc3ccccc32)c1,18.5
13,CC1=NN(c2ccc([N+](=O)[O-])cc2)C(=O)/C1=C\N(C)C,54.8
14,O=c1cc(-c2ccc(C3CCCCC3)cc2)[nH][nH]1,15
15,CC(C)(C)c1ccccc1NC(=S)NCc1ccccc1,58.7
16,COCC(C)n1c(SCc2ccc(OC)c(F)c2)nc2ccccc2c1=O (configuration not stated),2.84
17,CC(=O)Oc1ccc(N(C(C)=O)S(=O)(=O)c2cccs2)cc1,-2.75
18,Cc1cc(C)c(COc2ccc(/C=N/n3c(C)n[nH]c3=S)cc2)c(C)c1,63.2
19,Cc1cc(C)c(C)c(N=Nc2nc3ccccc3n2C)c1C,77.6
20,Cc1ccc(O)c(C(=O)/C=C/c2ccc3c(c2)OCCCO3)c1,4.05
21,Cc1nc(=O)c(-c2ccccc2)c(C)n1CCCCCC(=O)O,-1.16
22,CCc1ccc(-c2cn(C3CCCCC3)c(=S)[nH]2)cc1,58.5
23,COc1cc2c(cc1NC(=O)c1cccc(Br)c1)CCCC2,21.9

row,SMILES,inhibition [%]
1,CCCOC(=O)CN1C(=O)c2ccccc2C1=O,3.9
2,O=C(Nn1c(Cc2ccccc2)nc2ccccc2c1=O)c1c(O)c2cccc3c2n(c1=O)CCC3,64.7
3,Cc1ccc(Cl)cc1N1CCN(S(=O)(=O)N2CCCCC2)CC1,61.6
4,CCOC(=O)Cn1c(=NC(=O)c2ccc([N+](=O)[O-])s2)sc2ccccc21,-0.19
5,O=c1c2c(nc3n1CCCCC3)-c1ccccc1CC21CCCCC1,34.4
6,Cc1ccc(-c2cc(C(=O)N/N=C/C(Br)=C/c3ccccc3)n[nH]2)o1,38.7
7,CC(=O)N(C)c1nnc(-c2cnccn2)s1,-23.6
8,C=C1C(=O)C=C2CN(C(=O)c3ccccc3)[C@@](Cc3ccc(F)cc3)(C(=O)OC)[C@@H]12,43.3
9,S=C(NCc1ccccc1)N1CCN(c2cccc(Cl)c2)CC1,64.7
10,Cc1ccc(NC(=O)C(OC(=O)c2ccc(O)cc2)c2ccccc2)cc1Cl (configuration not stated),83
11,CCCCNC(=S)Nc1ccc(Oc2ccccc2)cc1,60.6
12,COc1ccc(-c2nc3ccccn3c2CN2CCN(c3ccccc3F)CC2)cc1,60.7
13,O=C(Nc1cccc(Cl)c1N1CCCC1)c1ccc(Br)o1,12.8
14,C[C@]1(C(=O)NCCCNc2ncc(C(F)(F)F)cc2Cl)C=C[C@@H](Cc2ccccc2)N1C(=O)c1ccccc1,-6.34
15,Cc1cc(-c2sccc2Br)nc(-n2cccc2)n1,52.4
16,O=C(CNC(=S)N(Cc1ccccc1)Cc1ccccc1F)NCc1ccccc1,18.1
17,O=C(/C=C/C=C/c1ccccc1)CC1(O)C(=O)N(CCc2ccccc2)c2ccccc21 (configuration not stated),35.8
18,OCC1(Cc2cccc(C(F)(F)F)c2)CCN(Cc2cc(F)cc(F)c2)CC1,64.7
19,CN1\C(=C/C=C/C=C/C=[N+](C)C)C(C)(C)c2ccccc21,80.8
20,O=c1c2cn[nH]c2nc(SCc2c(F)cccc2F)n1-c1ccc(Cl)cc1,14
21,CC(/C=C1\SC(=S)N(NC(=O)c2ccc(O)cc2)C1=O)=C\c1ccccc1,87.2
22,Cc1cccc2nc(-c3ccccc3)nc(N[C@@H](CO)c3ccccc3)c12,40.2
23,Cn1cccc1/C=N/n1c(-c2ccc(Cl)cc2Cl)n[nH]c1=S,41.9

row,SMILES,inhibition [%]
1,O=C(N/C=N/OCc1ccc(Cl)cc1Cl)NOCc1ncc(C(F)(F)F)cc1Cl,9.06
2,COc1ccc(/C=C2\CCCC3C2=NC(=S)NC3c2ccc(OC)cc2)cc1 (configuration not stated),47.1
3,Cc1ccc(-c2cc3c(N=O)c4ccccc4c-3n[nH]2)cc1,59.7
4,CCOC(=O)c1c(CN2CCOCC2)n(-c2ccccc2)c2cc(Br)c(OC)cc12,32.4
5,COc1ccc(C)cc1N1C(=N)/C(=C2/Nc3ccccc3S2)C(c2ccccc2)C1=O (configuration not stated),44.6
6,CC(C)(C)NC(=S)NC(=O)C12CCC3CC(CC(C3)C1)C2,44.8
7,COc1cccc(NC(=S)N(Cc2ccccn2)Cc2ccccc2Cl)c1,46.1
8,Cc1ccc(CNC(=O)CNC(=S)N(Cc2ccccc2)Cc2ccccc2F)cc1,31.5
9,S=c1[nH]ncn1/N=C/c1cccc(Oc2ccccc2)c1,69.2
10,Cc1c(C(=O)Nc2ccc(Oc3ccccc3)cc2)sc2nc3n(c(=O)c12)CCC3,33.6
11,COC(=O)[C@@H]1CC[C@H](C)[C@@H](c2ccc(C)cc2)N1C(=O)c1ccc(/C=N/O[C@@H](C)CN2CCCCc3nc(C)c(C)cc32)cc1,9.03
12,CCCC(NC(=S)NCC1CCCO1)C12CC3CC(CC(C3)C1)C2 (configuration not stated),11.1
13,C=C(C)C1Cc2c(C)nn(-c3cccc4ccccc34)c2C1 (configuration not stated),61.8
14,Cc1cc(N/N=C2\CC(C)CC(C)(C)C2)nc2ccccc12 (configuration not stated),58.6
15,CCOC(=O)c1c(C)nc2ccc(Cl)cc2c1-c1ccccc1,28.1
16,CCCc1sc(N/N=C/c2ccccn2)nc1-c1ccc(Br)cc1,4.03
17,CC(C)(C)n1nnnc1C(c1ccc(Cl)cc1)N(Cc1cccnc1)Cc1ccco1 (configuration not stated),-3.11
18,Cc1cc(Br)c(Cl)cc1NC(=O)CN1C(=O)C2C3CC(c4ccccc4)C(C3)C2C1=O (configuration not stated),40.8
19,Cc1ccc(C2(C)CC(C)(C)N(C(=O)CSc3nnc(C)s3)c3ccccc32)cc1 (configuration not stated),17
20,Cc1cccc(-n2c(CCc3ccccc3)nnc2SCC(=O)c2ccccc2)c1,9.06
21,CCOc1ccccc1NC(=S)NCCc1ccc(F)cc1,54
